Over roughly 33,000 sequences, “E-score (-0.5 to 0.5)” has its median near -0.053; the highest 2% begin near 0.37. This is one part of the list.
Target: Hap1 (UniProt P0CE41)
Assay: PBM E-score (8-mer binding enrichment) (E-score (-0.5 to 0.5)); higher = stronger / more preferred TF binding; most listed sequences are background and not binding sites
Conditions: protein concentration: 200 nM; construct: GST-DNA-binding domain
Procedure, shortened: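 E-scores (a modified Wilcoxon-Mann-Whitney statistic) were assigned by the Universal PBM Analysis Suite to every ungapped eight-base word pooled with its reverse complement. The input came from universal all-10-mer Agilent arrays made double-stranded by primer extension and probed with GST-tagged yeast transcription factors at about 100-200 nM. Fluorescent anti-GST detected bound protein, and masliner normalised the scans.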

Sequence of UniProt P0CE41 (P0CE41 whole entry): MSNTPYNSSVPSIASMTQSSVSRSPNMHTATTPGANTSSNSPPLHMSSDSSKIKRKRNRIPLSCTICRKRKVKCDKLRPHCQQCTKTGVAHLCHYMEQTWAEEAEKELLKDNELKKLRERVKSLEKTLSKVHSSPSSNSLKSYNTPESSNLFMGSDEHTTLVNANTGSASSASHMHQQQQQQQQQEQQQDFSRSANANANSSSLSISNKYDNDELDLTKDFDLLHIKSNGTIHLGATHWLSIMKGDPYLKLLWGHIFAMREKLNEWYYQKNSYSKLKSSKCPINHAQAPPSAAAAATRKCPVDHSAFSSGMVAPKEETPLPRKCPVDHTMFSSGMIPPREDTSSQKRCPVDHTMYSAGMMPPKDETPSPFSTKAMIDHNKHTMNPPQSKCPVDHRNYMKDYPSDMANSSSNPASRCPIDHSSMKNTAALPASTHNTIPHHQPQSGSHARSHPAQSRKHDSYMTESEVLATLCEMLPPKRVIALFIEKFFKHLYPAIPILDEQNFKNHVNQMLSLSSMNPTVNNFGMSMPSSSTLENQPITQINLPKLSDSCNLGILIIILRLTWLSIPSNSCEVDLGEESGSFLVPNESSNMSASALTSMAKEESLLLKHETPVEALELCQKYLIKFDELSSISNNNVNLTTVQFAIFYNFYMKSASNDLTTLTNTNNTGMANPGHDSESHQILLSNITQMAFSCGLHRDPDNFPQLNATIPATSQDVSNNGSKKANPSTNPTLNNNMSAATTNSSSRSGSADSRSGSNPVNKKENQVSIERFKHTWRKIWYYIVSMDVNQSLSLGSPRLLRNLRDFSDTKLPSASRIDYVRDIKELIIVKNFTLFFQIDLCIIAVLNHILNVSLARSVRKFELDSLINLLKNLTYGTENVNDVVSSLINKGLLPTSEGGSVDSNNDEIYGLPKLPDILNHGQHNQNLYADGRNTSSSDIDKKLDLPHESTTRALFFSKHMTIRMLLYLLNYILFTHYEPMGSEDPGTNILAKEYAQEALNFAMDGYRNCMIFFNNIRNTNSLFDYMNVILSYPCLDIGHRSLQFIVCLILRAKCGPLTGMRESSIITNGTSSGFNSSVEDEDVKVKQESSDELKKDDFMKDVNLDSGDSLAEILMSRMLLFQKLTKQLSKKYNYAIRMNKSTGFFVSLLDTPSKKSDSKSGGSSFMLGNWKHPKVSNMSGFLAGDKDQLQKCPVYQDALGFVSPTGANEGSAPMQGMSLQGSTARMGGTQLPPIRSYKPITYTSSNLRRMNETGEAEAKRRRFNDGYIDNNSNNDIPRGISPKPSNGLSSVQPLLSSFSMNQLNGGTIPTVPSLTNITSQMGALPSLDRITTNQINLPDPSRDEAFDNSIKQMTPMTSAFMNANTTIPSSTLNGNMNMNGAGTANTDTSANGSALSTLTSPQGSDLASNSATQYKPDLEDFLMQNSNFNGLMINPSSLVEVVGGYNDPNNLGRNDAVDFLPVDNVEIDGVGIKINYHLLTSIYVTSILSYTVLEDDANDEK

Sequence | PBM E-score
CATGAGCA | -0.107
AAGTCTCC | 0.0283
CAATTGTG | -0.155
TGCGTGAA | 0.037
CGAAACAG | 0.0239
AGGTGCAT | -0.171
CAGCTGTC | -0.0919
GCTACCAC | -0.252
AACACCGA | 0.446
AAGGGGTA | -0.2
AACTCTCC | 0.0653
AGACATGC | -0.256
AGACCGTG | -0.0316
ACGTGAGC | -0.104
AGCTCGCC | 0.119
GTCTTGCA | -0.136
GCATCACA | -0.137
GCATCGAA | -0.147
AATCTACT | 0.0176
GCCTACAC | -0.237
ATTCGTGG | -0.109
CTGCGGGA | 0.0153
ACGCGTCA | -0.171
GTCTGACA | -0.0876
TAACATCA | -0.207

Sequence | PBM E-score
ACCCAGGG | -0.183
GAATCCGC | 0.179
TAGGACGA | -0.164
CCGACCGC | 0.181
ACCTCGAT | -0.155
AAGACAGG | -0.138
GAGAGTCC | -0.0436
CTTTATGA | -0.28
AATTGTAG | -0.183
CCGCGAAG | 0.17
AAAAGCGG | 0.187
AGTGTCCA | -0.179
CGACGCCA | 0.0104
AGAACTGC | -0.198
GACAGTTA | 0.0585
AGATCACG | -0.113
TCCGCGAA | 0.292
AAATAAAG | 0.00195
AGCACAGG | -0.241
CGACTAAA | -0.0734
TCACTAAA | -0.16
ATCACGAA | -0.258
AGTAGGTC | -0.053
AGGTCCCA | -0.174
CCAGGTGC | 0.0224

Sequence | PBM E-score
AGTAGGAA | -0.259
CGGGGGAA | 0.354
AGCTTAGG | -0.0706
CCGGTCCA | 0.237
ACCTAGAC | -0.158
CAGGTCCG | 0.337
CTAGTTCC | 0.234
CTCCAAAC | -0.124
CACGTTTA | -0.217
CTCACCTA | -0.159
GGTGTGCA | -0.286
GTGAACCA | -0.193
TACTCCTA | -0.354
ATTGGTGG | -0.0634
ACGTACAT | -0.107
GTCATAGA | -0.181
CCGTGAAG | -0.0014
GTTCTTAA | -0.0272
CTTTCTGC | -0.0328
CTTAATCC | 0.218
CATCGGTA | 0.234
GCAGTCCC | -0.168
GGGGTGAA | 0.062
CCATGCGC | 0.00249
AATTGGAC | 0.0155

Sequence | PBM E-score
ACGCAGTC | -0.295
GGCTACGA | -0.0678
AGGACCCA | -0.114
CATCATCC | -0.171
CCTAGTAA | -0.0872
AATGTACA | -0.0116
AACTATAG | -0.102
CAGAATCA | -0.129
GGTGCACC | -0.0141
CTCGACCA | -0.187
AAACGGAT | 0.281
GCACTTAA | 0.0697
GCCGAATA | 0.3
ACCTGACT | -0.212
ATTGCTCG | 0.137
CCGTCTAC | 0.0105
CTTTCAAA | 0.0259
CACGCCTC | -0.277
CCGAGGCA | 0.289
GAACTCGA | -0.192
CACCAATG | 0.00433
AGAAAAGA | -0.13
AGAGTCGG | 0.1
TCTACGCA | -0.158
AATAGTGG | -0.0956

Sequence | PBM E-score
TCTAAGCA | -0.144
AAAAATCT | 0.0422
GCAACCGA | -0.0187
GGATGTGA | 0.0954
AGAGTTAA | -0.105
CGGTCGGC | 0.325
GAACCCGC | 0.181
AACGAGGA | -0.115
GGAATTCC | 0.0978
CGAAGTTC | 0.0889
AACCCGTG | -0.101
AACTTGCC | -0.0505
ATAATCCC | 0.326
AAGTCACG | 0.0659
CAAAATCC | 0.222
ATAACCAA | -0.182
AGCCACAA | -0.0589
GAAGACAC | 0.0373
CCGATGGA | 0.157
CGTTTAAA | 0.1
CAGTTTAC | -0.209
AGTTTAGC | 0.0835
AATGCACG | 0.115
GACCTCGC | -0.0792
CGTAGTAG | 0.0126

Sequence | PBM E-score
ATTTCGAG | -0.0565
ATACGGAG | 0.269
AATAGCAA | -0.00784
GAATCGCA | 0.0586
CGTAGCGC | 0.118
GCTTCTTA | 0.0677
ATGCGTTA | 0.0663
AAAAGCAA | -0.175
ATCCCGAC | 0.26
ATTGGTAG | -0.0662
GCCGTAGA | 0.161
GGTAAGTA | 0.00751
ACAAGACA | 0.0157
ACCGATAC | 0.371
AGGGGCAG | -0.242
GTTTGTCA | -0.172
ATGCCTAC | -0.191
AGAATTAG | -0.21
TGAAGCAA | -0.213
CCTGACTA | -0.174
ATAATCTC | 0.11
GGTCTTTA | 0.13
ATGCGAAC | 0.026
AATCGAGA | -0.11
ATCGTTAG | -0.108

Sequence | PBM E-score
AACCTGCT | 0.0694
CCGCGCTC | 0.199
CATTTACG | -0.0564
CCATCACG | 0.0099
GTAGTGCA | -0.117
ACACGACC | -0.0549
AGACTTGG | -0.273
CTGCTCAC | -0.314
GAACTGTA | -0.00641
CTGTCAAC | -0.279
GGCATCAA | -0.244
CAAATAGG | -0.181
ACCTGCGA | -0.166
GCCGGTAA | 0.422
CATCTCGA | -0.203
CCGGCCTC | 0.182
AACTAACT | 0.0833
ATAGTTCC | 0.262
GCAGAACC | -0.0428
CAAATTCG | 0.203
TCAAAAGA | -0.152
AATTCGCG | 0.101
